Source: the supplement of paper PMC6609913
Counter-ions that a name gives are not always drawn. ± gives the standard deviation of the averaged measurements. Whole data set: some 1,300 compounds, median “normalised cell viability” near 1, cut for the lowest 2% near 0.15. Some of the results follow.

Tested on: V-C8 + BRCA2 (BRCA2-proficient hamster cells)
Test: normalised cell viability (fraction of plate median); higher = more viable cells (less toxic)
Details: 5 µM
Outline: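 Hamster V-C8 cells lacking BRCA2 and V-C8 cells with BRCA2 restored were seeded in 96-well plates. Library drugs (10 mM DMSO stocks) were added 24 h later at 5 μM in 100 μl medium, next to DMSO control wells, for 3 days (screen 1) or 6 days (screen 2). Cell viability was read by resazurin assay, median-plate normalised (modified robust per cent of sample), and triplicate wells were averaged.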

COc1ccc(CC(C)NCC(O)c2ccc(O)c(NC=O)c2)cc1 (centres undefined) [Formoterol fumarate]
normalised cell viability (treatment time: 3 days): 1.04 ± 0.051
normalised cell viability (treatment time: 6 days): 1 ± 0.074

Cc1c(O)c(=O)n(-c2ccccc2)n1C [Antipyrine, 4-hydroxy]
normalised cell viability (treatment time: 3 days): 0.999 ± 0.0087
normalised cell viability (treatment time: 6 days): 0.961 ± 0.11

CC(C)OC(=O)C(C)(C)Oc1ccc(C(=O)c2ccc(Cl)cc2)cc1 [Fenofibrate]
normalised cell viability (treatment time: 3 days): 1.04 ± 0.038
normalised cell viability (treatment time: 6 days): 1.08 ± 0.091

CC=CC1=C(C(=O)O)N2C(=O)[C@@H](NC(=O)[C@H](N)c3ccc(O)cc3)[C@H]2SC1 [Cefprozil]
normalised cell viability (treatment time: 3 days): 0.951 ± 0.071
normalised cell viability (treatment time: 6 days): 0.908 ± 0.072

Cc1cc2c(s1)Nc1ccccc1N=C2N1CCN(C)CC1 [Olanzapine]
normalised cell viability (treatment time: 3 days): 0.865 ± 0.054
normalised cell viability (treatment time: 6 days): 0.735 ± 0.034

CC(N)CCCC(C)(C)O (centres undefined) [Heptaminol hydrochloride]
normalised cell viability (treatment time: 3 days): 1.02 ± 0.011
normalised cell viability (treatment time: 6 days): 0.978 ± 0.079

CN1CCCN=C1/C=C/c1cccc(O)c1 [Oxantel pamoate]
normalised cell viability (treatment time: 3 days): 0.952 ± 0.081
normalised cell viability (treatment time: 6 days): 1.04 ± 0.08

O=C(O)c1cc(/N=N/c2ccc(S(=O)(=O)Nc3ccccn3)cc2)ccc1O [Sulfasalazine]
normalised cell viability (treatment time: 3 days): 1.03 ± 0.061
normalised cell viability (treatment time: 6 days): 1.04 ± 0.059

CN/C(=N\CCSCc1nc[nH]c1C)NC#N [Cimetidine]
normalised cell viability (treatment time: 3 days): 1.02 ± 0.016
normalised cell viability (treatment time: 6 days): 1.04 ± 0.013

CCc1cccc(CC)c1NC(=O)CN(CC(=O)O)CC(=O)O [Etifenin]
normalised cell viability (treatment time: 3 days): 1.04 ± 0.02
normalised cell viability (treatment time: 6 days): 1.05 ± 0.043

CCCCc1ccc2[nH]c(NC(=O)OC)nc2c1 [Parbendazole]
normalised cell viability (treatment time: 3 days): 0.169 ± 0.014
normalised cell viability (treatment time: 6 days): 0.19 ± 0.025

Nc1ncnc2c1ncn2C1OC(COP(=O)(O)O)C(O)C1O (centres undefined) [Adenosine 5'-monophosphate monohydrate]
normalised cell viability (treatment time: 3 days): 1.21 ± 0.031
normalised cell viability (treatment time: 6 days): 1.02 ± 0.024

CN1CCCN(C(c2ccccc2)c2ccc(Cl)cc2)CC1 (centres undefined) [Homochlorcyclizine dihydrochloride]
normalised cell viability (treatment time: 3 days): 0.802 ± 0.018
normalised cell viability (treatment time: 6 days): 0.875 ± 0.045

C[C@@H]1C[C@H]2[C@@H]3CCC4=CC(=O)C=C[C@]4(C)[C@@]3(Cl)[C@@H](O)C[C@]2(C)[C@@]1(OC(=O)c1ccco1)C(=O)CCl [Mometasone furoate]
normalised cell viability (treatment time: 3 days): 1.01 ± 0.013
normalised cell viability (treatment time: 6 days): 0.965 ± 0.041

CCOc1ccc2nc(S(N)(=O)=O)sc2c1 [Ethoxzolamide]
normalised cell viability (treatment time: 3 days): 1.05 ± 0.029
normalised cell viability (treatment time: 6 days): 1.12 ± 0.13

CC1(C)S[C@@H]2[C@H](NC(=O)[C@H](N)c3ccccc3)C(=O)N2[C@H]1C(=O)O [Ampicillin trihydrate]
normalised cell viability (treatment time: 3 days): 1.19 ± 0.051
normalised cell viability (treatment time: 6 days): 1.07 ± 0.038

O=c1n(CCCN2CCN(c3cccc(Cl)c3)CC2)nc2ccccn12 [Trazodone hydrochloride]
normalised cell viability (treatment time: 3 days): 1.04 ± 0.047
normalised cell viability (treatment time: 6 days): 1.1 ± 0.063

COc1ccc2cc([C@H](C)C(=O)O)ccc2c1 [Naproxen]
normalised cell viability (treatment time: 3 days): 1.13 ± 0.065
normalised cell viability (treatment time: 6 days): 1.09 ± 0.023

Nc1cc(N2CCCCC2)nc(N)[n+]1[O-] [Minoxidil]
normalised cell viability (treatment time: 3 days): 0.994 ± 0.071
normalised cell viability (treatment time: 6 days): 0.993 ± 0.062

O=C(O)c1ccccc1OP(=O)(O)O [Fosfosal]
normalised cell viability (treatment time: 3 days): 0.966 ± 0.055
normalised cell viability (treatment time: 6 days): 1.06 ± 0.1

Cc1ncc([N+](=O)[O-])n1CC(C)O (centres undefined) [Secnidazole]
normalised cell viability (treatment time: 3 days): 1.08 ± 0.017
normalised cell viability (treatment time: 6 days): 1.01 ± 0.017

C/C=C(/C(=C/C)c1ccc(O)cc1)c1ccc(O)cc1 [Dienestrol]
normalised cell viability (treatment time: 3 days): 0.951 ± 0.019
normalised cell viability (treatment time: 6 days): 0.8703 ± 0.0083

CC(=O)O[C@H]1C(=O)[C@@]2(C)[C@H]([C@H](OC(=O)c3ccccc3)[C@]3(O)C[C@H](OC(=O)[C@H](O)[C@@H](NC(=O)c4ccccc4)c4ccccc4)C(C)=C1C3(C)C)[C@]1(OC(C)=O)CO[C@@H]1C[C@@H]2O [Paclitaxel]
normalised cell viability (treatment time: 3 days): 0.215 ± 0.013
normalised cell viability (treatment time: 6 days): 0.241 ± 0.033

COc1cccc2c1C(=O)c1c(O)c3c(c(O)c1C2=O)C[C@@](O)(C(=O)CO)C[C@@H]3O[C@H]1C[C@H](N)[C@@H](O)[C@H](C)O1 [Epirubicin hydrochloride]
normalised cell viability (treatment time: 3 days): 0.136 ± 0.0036
normalised cell viability (treatment time: 6 days): 0.153 ± 0.024

CCCN(CCC)CCc1cccc2c1CC(=O)N2 [Ropinirole HCl]
normalised cell viability (treatment time: 3 days): 1.04 ± 0.042
normalised cell viability (treatment time: 6 days): 1.05 ± 0.028

N/C(=N\C(=O)c1nc(Cl)c(N)nc1N)NCc1ccccc1 [Benzamil hydrochloride]
normalised cell viability (treatment time: 3 days): 0.904 ± 0.035
normalised cell viability (treatment time: 6 days): 0.925 ± 0.054

O=C(CCNNC(=O)c1ccncc1)NCc1ccccc1 [Nialamide]
normalised cell viability (treatment time: 3 days): 1.02 ± 0.082
normalised cell viability (treatment time: 6 days): 0.91 ± 0.23

Cc1nc2ccccn2c(=O)c1CCN1CCC(C(=O)c2ccc(F)cc2)CC1 [Pirenperone]
normalised cell viability (treatment time: 3 days): 1.02 ± 0.024
normalised cell viability (treatment time: 6 days): 1.1 ± 0.046

CSc1nc2cc(Cl)c(Oc3cccc(Cl)c3Cl)cc2[nH]1 [Triclabendazole]
normalised cell viability (treatment time: 3 days): 0.232 ± 0.011
normalised cell viability (treatment time: 6 days): 0.213 ± 0.016

NC(=O)c1cnccn1 [Pyrazinamide]
normalised cell viability (treatment time: 3 days): 1.14 ± 0.039
normalised cell viability (treatment time: 6 days): 1.02 ± 0.043

CC[C@@H]1C(=O)OC[C@@H]1Cc1cncn1C [Pilocarpine nitrate]
normalised cell viability (treatment time: 3 days): 1.04 ± 0.078
normalised cell viability (treatment time: 6 days): 1.05 ± 0.045

NS(=O)(=O)c1cc2c(cc1C(F)(F)F)NCNS2(=O)=O [Hydroflumethiazide]
normalised cell viability (treatment time: 3 days): 0.966 ± 0.044
normalised cell viability (treatment time: 6 days): 1 ± 0.015
